Consider three substances from article PMC9399231.

The chains behind the UniProt entries cited, without tags or fusion partners.
UniProt F7F8L9: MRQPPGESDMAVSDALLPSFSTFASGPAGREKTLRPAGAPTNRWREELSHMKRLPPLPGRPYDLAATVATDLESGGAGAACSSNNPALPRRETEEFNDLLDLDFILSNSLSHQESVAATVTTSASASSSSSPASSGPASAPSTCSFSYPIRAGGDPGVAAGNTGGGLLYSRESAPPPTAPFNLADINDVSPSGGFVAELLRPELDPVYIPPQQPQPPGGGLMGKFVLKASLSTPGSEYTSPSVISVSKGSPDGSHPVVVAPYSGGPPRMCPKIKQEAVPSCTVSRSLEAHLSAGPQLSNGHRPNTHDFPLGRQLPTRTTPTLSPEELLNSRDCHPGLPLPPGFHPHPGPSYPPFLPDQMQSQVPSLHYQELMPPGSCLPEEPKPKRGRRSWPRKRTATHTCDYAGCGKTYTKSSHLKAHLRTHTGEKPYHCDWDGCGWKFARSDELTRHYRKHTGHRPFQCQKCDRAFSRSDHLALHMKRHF
UniProt O43474: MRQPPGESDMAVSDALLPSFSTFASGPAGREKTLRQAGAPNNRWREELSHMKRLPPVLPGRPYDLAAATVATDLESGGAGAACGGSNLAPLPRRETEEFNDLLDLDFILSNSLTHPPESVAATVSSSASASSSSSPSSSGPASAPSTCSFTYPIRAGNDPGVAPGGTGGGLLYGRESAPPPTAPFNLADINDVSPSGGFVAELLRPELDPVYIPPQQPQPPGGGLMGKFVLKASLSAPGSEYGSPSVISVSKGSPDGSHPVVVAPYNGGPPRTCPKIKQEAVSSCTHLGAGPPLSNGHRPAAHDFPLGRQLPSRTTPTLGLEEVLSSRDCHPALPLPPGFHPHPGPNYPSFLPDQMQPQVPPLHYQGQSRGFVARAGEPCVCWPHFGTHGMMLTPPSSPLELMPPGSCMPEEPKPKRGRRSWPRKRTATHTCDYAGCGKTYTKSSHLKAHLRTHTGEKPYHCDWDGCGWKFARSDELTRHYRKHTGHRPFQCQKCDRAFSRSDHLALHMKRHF
UniProt Q8K1P7: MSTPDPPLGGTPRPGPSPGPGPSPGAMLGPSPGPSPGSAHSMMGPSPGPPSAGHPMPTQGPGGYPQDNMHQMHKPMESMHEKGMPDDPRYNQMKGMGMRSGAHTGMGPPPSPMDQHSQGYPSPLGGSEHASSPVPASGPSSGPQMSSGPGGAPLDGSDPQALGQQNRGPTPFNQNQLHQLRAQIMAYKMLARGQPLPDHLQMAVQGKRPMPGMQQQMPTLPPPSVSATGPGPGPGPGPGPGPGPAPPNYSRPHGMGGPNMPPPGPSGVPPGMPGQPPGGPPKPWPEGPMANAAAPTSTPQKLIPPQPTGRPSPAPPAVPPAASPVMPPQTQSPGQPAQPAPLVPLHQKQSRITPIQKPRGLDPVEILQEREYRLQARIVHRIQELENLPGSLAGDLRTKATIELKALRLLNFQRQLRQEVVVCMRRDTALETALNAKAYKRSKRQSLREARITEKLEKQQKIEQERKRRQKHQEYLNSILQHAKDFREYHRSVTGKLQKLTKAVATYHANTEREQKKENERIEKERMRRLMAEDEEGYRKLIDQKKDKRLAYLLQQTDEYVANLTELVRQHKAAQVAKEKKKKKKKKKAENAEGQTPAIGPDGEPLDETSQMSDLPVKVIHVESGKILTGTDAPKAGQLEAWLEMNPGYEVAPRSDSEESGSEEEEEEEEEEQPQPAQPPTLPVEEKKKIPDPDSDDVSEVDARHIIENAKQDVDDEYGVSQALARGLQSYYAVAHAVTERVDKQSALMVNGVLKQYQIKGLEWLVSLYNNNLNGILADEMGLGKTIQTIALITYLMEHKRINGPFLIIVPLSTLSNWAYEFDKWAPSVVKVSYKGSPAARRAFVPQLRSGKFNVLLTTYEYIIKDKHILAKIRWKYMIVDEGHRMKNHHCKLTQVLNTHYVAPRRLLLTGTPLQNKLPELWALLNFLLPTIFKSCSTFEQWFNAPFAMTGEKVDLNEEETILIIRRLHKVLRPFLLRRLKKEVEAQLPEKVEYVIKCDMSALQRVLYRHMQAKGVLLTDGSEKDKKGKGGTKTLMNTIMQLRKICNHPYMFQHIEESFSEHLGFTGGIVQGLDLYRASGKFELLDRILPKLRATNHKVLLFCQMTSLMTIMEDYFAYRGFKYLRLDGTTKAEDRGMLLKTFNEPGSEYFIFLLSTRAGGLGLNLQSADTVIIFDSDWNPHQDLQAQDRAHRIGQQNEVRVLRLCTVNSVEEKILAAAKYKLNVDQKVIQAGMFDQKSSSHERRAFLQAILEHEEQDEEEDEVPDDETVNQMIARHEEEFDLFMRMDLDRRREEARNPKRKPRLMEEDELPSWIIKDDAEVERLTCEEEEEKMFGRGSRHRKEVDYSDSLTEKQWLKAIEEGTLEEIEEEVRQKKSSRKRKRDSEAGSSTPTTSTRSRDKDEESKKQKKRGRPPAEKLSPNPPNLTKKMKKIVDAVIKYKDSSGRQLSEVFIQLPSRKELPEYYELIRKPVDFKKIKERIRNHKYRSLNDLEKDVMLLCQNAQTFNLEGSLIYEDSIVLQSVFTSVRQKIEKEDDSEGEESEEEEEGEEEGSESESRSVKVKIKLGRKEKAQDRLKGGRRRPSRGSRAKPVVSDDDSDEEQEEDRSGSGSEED
UniProt P51532: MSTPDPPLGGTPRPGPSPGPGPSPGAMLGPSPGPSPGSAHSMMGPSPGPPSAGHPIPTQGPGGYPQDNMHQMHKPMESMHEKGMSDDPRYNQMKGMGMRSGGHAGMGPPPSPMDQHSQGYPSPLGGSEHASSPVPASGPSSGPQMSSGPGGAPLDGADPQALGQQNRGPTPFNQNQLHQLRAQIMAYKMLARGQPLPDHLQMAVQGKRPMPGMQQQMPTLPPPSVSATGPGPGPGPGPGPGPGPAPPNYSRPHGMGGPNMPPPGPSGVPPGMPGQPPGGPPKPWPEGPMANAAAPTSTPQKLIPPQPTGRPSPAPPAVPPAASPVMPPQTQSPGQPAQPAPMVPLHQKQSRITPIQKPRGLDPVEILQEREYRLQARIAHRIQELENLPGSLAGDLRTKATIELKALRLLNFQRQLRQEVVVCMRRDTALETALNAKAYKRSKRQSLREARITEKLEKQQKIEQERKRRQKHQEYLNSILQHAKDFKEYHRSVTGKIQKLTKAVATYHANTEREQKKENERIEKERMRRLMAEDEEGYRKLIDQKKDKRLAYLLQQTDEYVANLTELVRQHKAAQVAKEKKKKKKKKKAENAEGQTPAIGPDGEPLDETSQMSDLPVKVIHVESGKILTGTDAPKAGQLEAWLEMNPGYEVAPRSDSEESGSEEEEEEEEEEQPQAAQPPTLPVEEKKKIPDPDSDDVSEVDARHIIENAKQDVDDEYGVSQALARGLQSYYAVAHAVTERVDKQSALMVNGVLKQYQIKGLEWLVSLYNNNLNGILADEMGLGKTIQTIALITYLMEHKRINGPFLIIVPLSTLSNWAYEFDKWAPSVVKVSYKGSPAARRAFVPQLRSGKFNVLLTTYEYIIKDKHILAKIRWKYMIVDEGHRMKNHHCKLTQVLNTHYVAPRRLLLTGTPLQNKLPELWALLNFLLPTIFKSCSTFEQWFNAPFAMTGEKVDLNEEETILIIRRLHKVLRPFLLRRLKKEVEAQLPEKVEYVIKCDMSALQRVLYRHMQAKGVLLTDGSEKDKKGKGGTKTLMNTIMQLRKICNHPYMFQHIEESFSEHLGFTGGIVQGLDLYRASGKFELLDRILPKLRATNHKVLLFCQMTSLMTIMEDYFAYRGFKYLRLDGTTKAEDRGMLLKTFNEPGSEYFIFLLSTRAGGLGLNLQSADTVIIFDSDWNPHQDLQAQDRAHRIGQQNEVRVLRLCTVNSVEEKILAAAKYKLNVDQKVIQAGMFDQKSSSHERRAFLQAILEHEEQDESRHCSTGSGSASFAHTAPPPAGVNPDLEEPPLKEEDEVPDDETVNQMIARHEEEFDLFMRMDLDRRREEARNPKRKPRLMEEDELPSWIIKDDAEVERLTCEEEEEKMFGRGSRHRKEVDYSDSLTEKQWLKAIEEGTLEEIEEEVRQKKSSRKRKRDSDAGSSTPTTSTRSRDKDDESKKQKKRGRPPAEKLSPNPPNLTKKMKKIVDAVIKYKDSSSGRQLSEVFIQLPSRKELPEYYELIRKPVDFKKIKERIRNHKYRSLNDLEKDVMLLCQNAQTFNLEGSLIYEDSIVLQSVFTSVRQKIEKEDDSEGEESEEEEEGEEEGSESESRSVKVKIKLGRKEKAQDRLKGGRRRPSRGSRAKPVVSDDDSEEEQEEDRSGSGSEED
UniProt Q8TAQ2: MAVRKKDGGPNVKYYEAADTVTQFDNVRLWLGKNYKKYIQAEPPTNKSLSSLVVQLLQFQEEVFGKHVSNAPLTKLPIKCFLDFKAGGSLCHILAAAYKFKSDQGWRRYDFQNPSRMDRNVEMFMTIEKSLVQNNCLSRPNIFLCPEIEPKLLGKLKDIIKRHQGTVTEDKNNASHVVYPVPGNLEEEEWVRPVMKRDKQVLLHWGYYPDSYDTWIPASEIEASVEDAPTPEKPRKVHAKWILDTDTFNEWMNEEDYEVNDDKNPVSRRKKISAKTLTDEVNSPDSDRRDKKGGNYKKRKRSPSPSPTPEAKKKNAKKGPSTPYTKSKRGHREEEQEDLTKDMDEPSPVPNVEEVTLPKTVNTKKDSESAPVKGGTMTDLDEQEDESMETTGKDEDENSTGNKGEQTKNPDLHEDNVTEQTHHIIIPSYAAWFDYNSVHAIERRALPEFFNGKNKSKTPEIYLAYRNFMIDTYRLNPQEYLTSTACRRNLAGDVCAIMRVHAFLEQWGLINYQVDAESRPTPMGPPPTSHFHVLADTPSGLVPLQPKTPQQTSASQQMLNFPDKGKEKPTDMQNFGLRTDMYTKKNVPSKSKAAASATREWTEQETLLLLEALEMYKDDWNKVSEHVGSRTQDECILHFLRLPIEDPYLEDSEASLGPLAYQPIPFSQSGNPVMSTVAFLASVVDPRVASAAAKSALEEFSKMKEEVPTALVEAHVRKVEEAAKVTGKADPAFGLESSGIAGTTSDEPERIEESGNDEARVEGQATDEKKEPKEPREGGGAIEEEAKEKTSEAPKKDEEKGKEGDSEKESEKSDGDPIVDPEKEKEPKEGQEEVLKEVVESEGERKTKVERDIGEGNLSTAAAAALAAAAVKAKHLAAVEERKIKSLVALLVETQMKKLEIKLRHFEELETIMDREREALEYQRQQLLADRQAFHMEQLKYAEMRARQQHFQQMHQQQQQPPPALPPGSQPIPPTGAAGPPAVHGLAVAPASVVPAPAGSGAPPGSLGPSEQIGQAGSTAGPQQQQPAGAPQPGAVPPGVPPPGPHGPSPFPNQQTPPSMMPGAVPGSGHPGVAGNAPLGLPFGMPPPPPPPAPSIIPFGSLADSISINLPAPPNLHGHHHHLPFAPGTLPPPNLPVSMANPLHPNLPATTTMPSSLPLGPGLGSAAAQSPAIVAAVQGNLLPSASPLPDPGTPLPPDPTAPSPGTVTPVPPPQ

Results are given in words; binding and its absence hold for the method and conditions named. Binding seen in cells or lysates may run through a third protein. Some results given as binding are weak or reduced against the parent protein; the word gives no strength.

In test [1] the target is KLF4 (rat) (rat (endogenous in lung tissue)) (UniProt F7F8L9). The test can be described thus: proximity ligation; modified Duolink PLA in 350 μm sections of healthy rat lung; straight parts of the vessel exposed to LSS.
Test [2] has the same target. The test can be described thus: proximity ligation; modified Duolink PLA in 350 μm sections of healthy rat lung; bifurcations exposed to disturbed shear stress (DSS).
Test [3] has the same target. The test can be described thus: condition: only at bifurcations exposed to disturbed shear stress; proximity ligation; modified Duolink PLA in 350 μm sections of healthy rat lung; bifurcations exposed to disturbed shear stress (DSS).
In test [4] the target is KLF4 (human (endogenous in PAEC)) (UniProt O43474). The test can be described thus: proximity ligation; Duolink PLA in PAEC exposed to 15 dyn/cm^2 of LSS or ST conditions for 24 h, fixed with 4% PFA; rabbit anti-KLF4 and mouse anti-BRG1 or anti-SMARCC2; epitopes within 40 nm.

Turning to BRG1 (rat) (from UniProt Q8K1P7 1-1613), the figures for the binding entry in test [1], in test [2] and in test [3] were “binds”, “binds weakly” and “no binding”, respectively. Regarding “Brahma-Related Gene 1 (BRG1) (from UniProt P51532 1-1647)”, the binding entry in test [4] is “binds”. On to SMARCC2 (from UniProt Q8TAQ2 1-1214), for which the binding result in test [4] was “binds”.
